Experimental data as given in PubChem BioAssay AID463173 (ICCB-Longwood Screening Facility, Harvard Medical School, 2010).
Screen size: about 52,000 compounds; about 1,700 (3.3%) were called active. Rule as the data show it: active = survival mostly below about 52% (no sharp cut-off); inactive = mostly above about 56%. The list shows a part of the results.

The molecules below were run on Wild type (assay: growth inhibition of S. aureus wild type versus tarO mutant, primary screen, teichoic acid synthesis inhibitors, RN4220, OD600 (AID 463173)). Settings: S. aureus RN4220 wild type/DeltatarO growth, OD600, 18 h, active compounds read low, screened at 18.75 µg/mL (by protocol).
For `CCOC(=O)c1c(NC(=O)/C=C/c2ccc(C)cc2)sc2c1CCCC2`, the survival was inactive: 34%. With `COc1ccc(OCC(=O)OCc2cc(=O)n3nc(C4CC4)sc3n2)cc1` the survival was inactive: 55%. For `Cc1ccc(NC(=O)C(=O)NCC(c2ccc3c(c2)OCO3)N2CCOCC2)cc1C` (configuration not stated), the survival was inactive: 45%. In the case of `CCC(C)NC(=O)c1ccc2nc(CCc3ccccc3)oc2c1` (configuration not stated), the survival is reported as inactive: 68%. For `COc1ccccc1CNC(=O)c1ccc(-c2nc(CS(=O)(=O)c3ccc(C)cc3)c(C)o2)cc1`, the survival was inactive: 69%. `Cc1ccc(CNC(=O)CCCc2nnc3n(C)c(=O)c4sccc4n23)cc1` was tested, and the survival was inactive: 92%. For `O=C(NCCc1ccc(Cl)cc1)c1cc(-c2ccc(Cl)cc2)n[nH]1`, the survival was inactive: 86%. With `O=C(CSc1nc(-c2ccccc2)nc2c1Cc1ccccc1O2)N1CCCCC1` the survival was inactive: 62%. For `CC1=C(C(=O)Nc2ccccc2)C(c2cccc(Cl)c2)n2nc(SCC(=O)c3ccc(C)cc3)nc2N1` (configuration not stated), the survival was inactive: 64%. In the case of `CCOc1ccc(NC(=O)CCCc2nnc3n(C)c(=O)c4sccc4n23)cc1`, the survival is reported as inactive: 102%. In the case of `O=C(NCc1ccccc1F)C(=O)NCC(c1ccco1)S(=O)(=O)c1cccs1` (configuration not stated), the survival is reported as inactive: 19%. With `Cc1cccc(OCC(=O)Nc2ccccc2C(=O)OCc2cc(=O)n3nc(C)sc3n2)c1` the survival was inactive: 74%. For `Cc1ccc(Cn2c(=O)n(CCCCC(=O)NCc3ccccc3Cl)c(=O)c3ccccc32)cc1`, the survival was inactive: 114%. For `O=c1[nH]c2ccc(NCc3ccc(-c4ccccc4)o3)cc2[nH]1`, the survival was inactive: 88%. With `CCc1c(C)nc2c(C)cccc2c1SCCC#N` the survival was inactive: 111%. With `CCOc1ccccc1Nc1sc(C(=O)c2ccccc2)c(N)c1S(=O)(=O)c1ccc(C)cc1` the survival was inactive: 81%. In the case of `O=C(Nc1ccc2oc(-c3ccc4ccccc4c3)nc2c1)c1ccc(Cl)c(Cl)c1`, the survival is reported as inactive: 99%. With `Cc1ccc(CCNC(=O)c2cc3c(-c4ccccc4F)nn(C)c3s2)cc1` the survival was inactive: 75%. For `COc1ccc(OC)c(NC(=O)c2cn(CC(C)C)c(=O)c3cc(OC)c(OC)cc23)c1`, the survival was inactive: 70%. `COCCCNC(=O)c1ccc2c(c1)nc(C)n2-c1cccc(C)c1` was tested, and the survival was inactive: 69%. For `CCOc1ccc(-c2oc3ccc(C)cc3c(=O)c2O)cc1`, the survival was inactive: 82%. With `Fc1ccc(Nc2ncnc3c2nc2n3CCCCC2)c(F)c1` the survival was active: 14%. For `CCN(c1ccccc1)S(=O)(=O)c1ccc(NC(=O)c2cc(=O)c3ccccc3o2)cc1`, the survival was inactive: 83%. With `O=C(Nc1ccc(C(=O)OCc2cc(=O)n3nc(C4CC4)sc3n2)cc1)c1cccc(F)c1` the survival was inactive: 63%. In the case of `CCOC(=O)c1c(S(=O)(=O)N2CCC(C(=O)Nc3ncccc3C)CC2)c(C)n(C)c1C`, the survival is reported as inactive: 72%. For `CCOC(=O)c1cc(-c2ccc(OC)cc2)n(CCC(=O)NC2CCCCC2)c1C`, the survival was inactive: 82%. In the case of `COc1ccc2c(CNC3CCCCCC3)c(C(=O)O)n(Cc3ccccc3F)c2c1`, the survival is reported as inactive: 89%. With `O=C(Nc1ccc(F)cc1)C1CCN(S(=O)(=O)c2ccc3c(c2)CCCN3C(=O)C2CCC2)CC1` the survival was inactive: 102%. With `CCC(=O)N1CCc2cc(Br)cc(S(=O)(=O)CCC(=O)N3CCN(c4cc(C)ccc4C)CC3)c21` the survival was inactive: 59%. For `CCCc1nnc(NC(=O)c2cc(=O)c3cc(C)c(C)cc3o2)s1`, the survival was inactive: 72%. For `CCOC(=O)c1cnc2ccc(C)cc2c1Nc1ccc(N(CC)CC)cc1`, the survival was active: -2%. In the case of `Cc1c(C(=O)OC2CCCCC2)[nH]c2c1C(=O)CC(c1ccc(C(C)(C)C)cc1)C2` (configuration not stated), the survival is reported as inactive: 84%. With `CCc1ccccc1NC(=O)CN1C(=O)CCSc2ccc(S(=O)(=O)N3CCCC3)cc21` the survival was inactive: 124%. For `O=C(OCC1CCCO1)c1ccc2c(c1)N(Cc1ccccc1)C(=O)c1ccccc1S2(=O)=O` (configuration not stated), the survival was inactive: 72%. With `CCN(CC)S(=O)(=O)c1ccc2c(c1)nc(CN(C)C(=O)Nc1ccc(C)c(F)c1)n2C` the survival was inactive: 85%. `COC(=O)c1ccc(CSc2nc3c([nH]c4ccccc43)c(=O)n2-c2cccc(Cl)c2)o1` was tested, and the survival was inactive: 71%. In the case of `CCc1ccccc1NC(=O)C(C)n1c(=O)cc(C)c2c(C)nn(-c3ccccc3)c21` (configuration not stated), the survival is reported as inactive: 72%. `CCOC(=O)C1CCCN(C(=O)Cn2ncc3c4ccccc4n(Cc4ccccc4)c3c2=O)C1` (configuration not stated) was tested, and the survival was inactive: 121%. In the case of `COc1ccc(N2CCN(C(=O)COCc3cc(-c4ccc5c(c4)OCO5)on3)CC2)cc1`, the survival is reported as inactive: 81%. `COc1ccccc1NC(=O)c1cc2c(C)nn(-c3ccccc3)c2s1` was tested, and the survival was active: 1%. With `Cc1ccc(NC(=O)c2nc(S(C)(=O)=O)ncc2N(Cc2ccco2)Cc2cccs2)cc1C` the survival was inactive: 77%. For `COc1ccc(NC(=O)c2sc3nc(C(F)(F)F)cc(C)c3c2N)cc1OC`, the survival was inactive: 130%. With `O=C(NC1CCN(Cc2ccccc2)CC1)c1ccc(Cn2c(=O)c3ccccc3n(Cc3ccc(F)cc3)c2=O)cc1` the survival was inactive: 90%. `Cc1cc(C)cc(Oc2nc3ccccn3c(=O)c2/C=C(\C#N)c2nc3ccccc3s2)c1` was tested, and the survival was inactive: 64%. `CCn1nc(-c2ccccc2)c(-c2ccccc2)c(C(=O)Nc2ccc(NC(C)=O)cc2)c1=O` was tested, and the survival was inactive: 88%. With `Cn1c(=O)cc(SCC(=O)N2CCN(c3ccccc3F)CC2)c2ccc(Cl)cc21` the survival was inactive: 60%. In the case of `Cc1ccccc1OCCSc1nc2ccc(NC(=O)c3cccs3)cc2s1`, the survival is reported as inactive: 74%. In the case of `COCCCNC(=O)CSc1nc2cc3c(cc2c(=O)n1CCCC(=O)NCc1ccc2c(c1)OCO2)OCO3`, the survival is reported as inactive: 82%. `COc1ccc(OC)c(NC(=O)Nc2c(C)n(C)n(-c3ccccc3)c2=O)c1` was tested, and the survival was inactive: 85%. For `Cc1ccc(Cn2ccnc2SCC(=O)Nc2nnc(C)s2)cc1`, the survival was inactive: 65%. `Cc1ccc(-c2csc(=Nc3ccccc3)n2Cc2ccc3c(c2)OCO3)cc1` was tested, and the survival was inactive: 69%. In the case of `COc1ccc(CNC(=O)c2cc3sccc3n2Cc2ccc(C)cc2)cc1`, the survival is reported as inactive: 91%. For `COCCCn1c(-c2ccc(S(=O)(=O)N3CCOCC3)cc2)csc1=Nc1ccccc1`, the survival was inactive: 46%. In the case of `CC1(c2ccc(Cl)cc2)CC(C)(C)N(C(=O)c2cccc(F)c2)c2ccccc21` (configuration not stated), the survival is reported as active: 7%. For `O=C(NCCN1CCCCC1)c1ccc(Cn2c(SCc3ccccc3)nc3cccnc32)cc1`, the survival was inactive: 140%. For `NC(=O)C1(C(N)=O)CCC1`, the survival was inactive: 123%. `O=C(Cc1ccccc1)Nc1sc2c(c1C(=O)Nc1ccc(Br)cc1)CCCC2` was tested, and the survival was inactive: 86%. In the case of `CC(=O)c1ccc(NS(=O)(=O)c2ccc(-n3cccn3)cc2)cc1`, the survival is reported as inactive: 131%. `Cc1ccc(NC(=O)C2CCN(c3nc(-c4ccc(C(C)C)cc4)no3)CC2)c(Cl)c1` was tested, and the survival was inactive: 71%. In the case of `Cc1ccccc1NC(=O)CSc1nc(-c2ccco2)nc2cc(=O)[nH]n12`, the survival is reported as inactive: 79%. In the case of `Cc1ccc(C(=O)NC2(C(F)(F)F)N=C(c3ccccc3)N(Cc3ccccc3)C2=O)cc1` (configuration not stated), the survival is reported as inactive: 76%. With `Cc1ccc(C(=O)Oc2cc(-c3ccc4c(c3)OCO4)cc(=O)c3c(C)oc(C)c23)cc1` the survival was inactive: 114%. `COc1ccccc1NC(=O)Cn1c(=O)n(CC(=O)NCc2ccccc2Cl)c(=O)c2sccc21` was tested, and the survival was inactive: 141%. With `COc1ccc(C(=O)Oc2c(Sc3ccc(C)cc3)c(C)nn2C(C)(C)C)cc1OC` the survival was inactive: 127%. `O=C(c1ccc2c(c1)N(Cc1ccc(Cl)cc1)C(=O)c1ccccc1S2=O)N1CCCCC1` (configuration not stated) was tested, and the survival was inactive: 88%. With `CCOc1ccc(CNC(=O)c2cc(-c3ccc(Cl)s3)nc3ccccc23)cc1` the survival was inactive: 89%. For `Cc1ccc2c(CNCc3ccc(C)o3)c(C(=O)O)n(Cc3ccc(F)cc3)c2c1`, the survival was inactive: 84%. With `CN(C)c1nc(NCCNS(=O)(=O)c2ccc(Cl)cc2)nc(N(C)C)n1` the survival was inactive: 117%. For `CCOC(=O)C1CCN(C(c2ccc(C)cc2)c2c(O)cc(C)n(CCOC)c2=O)CC1` (configuration not stated), the survival was inactive: 88%. In the case of `CCOc1ccc(-c2cc(CCCC(=O)NCCc3cc(OC)c(OC)c(OC)c3)no2)cc1`, the survival is reported as inactive: 59%. For `Cc1ccc(NC(=O)Cn2cc(C(=O)C3CCCCC3)c3ccccc32)cc1`, the survival was inactive: 87%. In the case of `Cc1cccc(NC(=O)CCNS(=O)(=O)c2ccc3c(c2)CCN3C(=O)C2CC2)c1`, the survival is reported as inactive: 93%. For `COC(=O)c1cc(-c2ccc(OC)c(OC)c2)nc2ccccc12`, the survival was inactive: 106%. For `O=C1NC(c2ccccc2)/C(=C(\O)c2ccccc2)C1=O` (configuration not stated), the survival was inactive: 112%. With `CC(C)(C)NSc1nc2ccccc2s1` the survival was inactive: 68%. In the case of `COc1ccc(CCNC(=O)CCCn2nc(C)c3sc4ccccc4c3c2=O)c(OC)c1`, the survival is reported as inactive: 81%. `CCOc1ccc(NC(=O)Cn2c(=O)n(CCCS(=O)(=O)C3CCCCC3)c(=O)c3ccccc32)cc1` was tested, and the survival was inactive: 85%. In the case of `Cc1ccc(NC(=O)C2CCC(CNS(=O)(=O)c3cccc4nsnc34)CC2)c(Cl)c1` (configuration not stated), the survival is reported as inactive: 78%. With `COC(=O)c1c(C)oc2ccc(N(C(=O)c3ccncc3)S(=O)(=O)c3cc(C)ccc3C)cc12` the survival was inactive: 75%. `Cc1ccc(C(=O)Nc2ccccc2)cc1S(=O)(=O)Nc1ccccc1` was tested, and the survival was inactive: 70%. In the case of `COc1ccc(N2CCN(C(=O)C3CCN(S(=O)(=O)c4cn(C)cn4)CC3)CC2)cc1`, the survival is reported as inactive: 88%. In the case of `Cc1ccc(OC(=O)CSc2nnc(-c3ccc4c(c3)OCO4)o2)cc1`, the survival is reported as inactive: 89%. With `Cc1cccc(N(C)C(=O)Cc2c(C(=O)O)[nH]c3ccccc23)c1` the survival was inactive: 120%. With `Cc1ccc(-n2ncc3c(N4CCC(Cc5ccccc5)CC4)ncnc32)cc1C` the survival was inactive: 92%. With `CC(C)N(C(=O)c1cccs1)C(C)C` the survival was inactive: 100%. In the case of `COC(=O)c1cc2occc2n1CC(=O)Nc1ccc(C)cc1Cl`, the survival is reported as inactive: 95%. `COc1ccc(CCNc2nc3cc(OC)c(OC)cc3c3nc(-c4ccccc4)nn23)cc1OC` was tested, and the survival was inactive: 129%.
